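How tested: cells in 96-well plates exposed to compound for 48 hours at five concentrations. Abbreviation: GI50, concentration required for 50% inhibition of growth.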 For part of its entries the source gives two or more results. Only these are listed. An entry can have further records. For part of these data: Records of one sample usually come from different ranges of test concentrations, not given here; a value can be the end of its range. For part of these data: The records of an entry are repeats across runs, samples, wells, individuals or studies. A tag in brackets gives the origin of a value. A, B and so on number the origins entry by entry.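 TGI marks complete inhibition of growth.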
Legend:
Assay in all cases: NCI-60 cell line screen, 48 h
NCI-H23 lung = system: NCI-H23 lung
KM12 colon = system: KM12 colon
LOX IMVI melanoma = system: LOX IMVI melanoma
SNB-75 CNS = system: SNB-75 CNS
DU-145 prostate = system: DU-145 prostate
NCI-H226 lung = system: NCI-H226 lung
HCT-116 colon = system: HCT-116 colon
T-47D breast = system: T-47D breast
HCC-2998 colon = system: HCC-2998 colon
HOP-62 NSCLC = system: HOP-62 NSCLC
M14 melanoma = system: M14 melanoma
HS 578T breast = system: HS 578T breast
PC-3 prostate = system: PC-3 prostate
786-0 renal = system: 786-0 renal
TK-10 renal = system: TK-10 renal
CCRF-CEM leukemia = system: CCRF-CEM leukemia
SR leukemia = system: SR leukemia
MDA-MB-231 breast = system: MDA-MB-231 breast
SF-539 CNS = system: SF-539 CNS
RPMI-8226 leukemia = system: RPMI-8226 leukemia
HOP-18 NSCLC = system: HOP-18 NSCLC
SK-MEL-28 melanoma = system: SK-MEL-28 melanoma
UACC-62 melanoma = system: UACC-62 melanoma
K-562 leukemia = system: K-562 leukemia
SN12C renal = system: SN12C renal
CAKI-1 renal = system: CAKI-1 renal
SK-MEL-2 melanoma = system: SK-MEL-2 melanoma
IGROV1 ovarian = system: IGROV1 ovarian
ACHN renal = system: ACHN renal
SNB-19 CNS = system: SNB-19 CNS
OVCAR-5 ovarian = system: OVCAR-5 ovarian
COLO 205 colon = system: COLO 205 colon
HCT-15 colon = system: HCT-15 colon
SW-620 colon = system: SW-620 colon
NCI/ADR-RES ovarian = system: NCI/ADR-RES ovarian
A498 renal = system: A498 renal
MDA-MB-435 = system: MDA-MB-435
SK-MEL-5 melanoma = system: SK-MEL-5 melanoma
MALME-3M melanoma = system: MALME-3M melanoma
SF-268 CNS = system: SF-268 CNS
UACC-257 melanoma = system: UACC-257 melanoma
NCI-H522 lung = system: NCI-H522 lung

For `CCOC(=O)c1[nH]c(Br)c(-c2ccc(OC)c(OC)c2)c1Br`, the TGI (NCI-H23 lung) was 2.16 µM and 37 µM, the TGI (KM12 colon) was 951 nM and 12.7 µM and the TGI (LOX IMVI melanoma) was 37.7 nM and 11.4 µM.

`CN(Cc1cnc2nc(N)nc(N)c2n1)c1ccc(C(=O)N[C@@H](CCC(=O)O)C(=O)O)cc1` was tested, and the TGI (SNB-75 CNS) was 9.64 µM, 213 µM, > 250 µM, the GI50 (DU-145 prostate) was 488 nM [1 test] and 54.8 nM [mean of 29 tests] and 21.5 nM [mean of 5 tests] and the GI50 (NCI-H226 lung) was > 250 µM [1 test] and 3.16 µM [mean of 5 tests]. For the same molecule, the TGI (HCT-116 colon) was 2.5 nM, > 247 µM, > 250 µM, the GI50 (T-47D breast) was > 250 µM [1 test] and 1.43 µM [mean of 4 tests] and the GI50 (HCC-2998 colon) was > 250 µM [1 test] and 93.7 nM [mean of 2 tests]. For the same molecule, the TGI (HOP-62 NSCLC) was 5.5 µM, 35.4 µM, > 250 µM, the GI50 (M14 melanoma) was 488 nM [mean of 2 tests] and 29.3 nM [mean of 5 tests] and the GI50 (HS 578T breast) was > 250 µM [mean of 2 tests] and 151 µM [mean of 31 tests] and 8.08 µM [mean of 5 tests]. The GI50 (PC-3 prostate) was > 250 µM [mean of 2 tests] and 65.5 nM [mean of 30 tests] and 2.62 nM [mean of 5 tests], the GI50 (786-0 renal) was 488 nM [mean of 2 tests] and 25.1 nM [mean of 5 tests] and the GI50 (TK-10 renal) was > 250 µM [1 test] and 8.12 µM [mean of 4 tests] and 43 µM [mean of 76 tests]. For the same molecule, the TGI (CCRF-CEM leukemia) was 8.33 µM and 188 µM, the GI50 (SR leukemia) was 3.8 nM [mean of 4 tests] and 43.5 nM [mean of 65 tests] and the GI50 (MDA-MB-231 breast) was > 250 µM [mean of 2 tests] and 2.37 µM [mean of 5 tests]. The TGI (SF-539 CNS) was 7.77 µM, 156 µM, > 250 µM, the GI50 (RPMI-8226 leukemia) was 1.26 µM [1 test] and 121 nM [mean of 4 tests] and the TGI (HOP-18 NSCLC) was 0.00247 nM and 189 µM.

With `O=C(NOC[C@H](O)CO)c1ccc(F)c(F)c1Nc1ccc(I)cc1F` the TGI (SK-MEL-28 melanoma) was > 100 µM [sample A, mean of 2 tests] and 35.5 nM [sample B, mean of 2 tests], the TGI (UACC-62 melanoma) was 525 nM [sample A, mean of 2 tests] and 40.4 nM [sample B, mean of 2 tests] and the GI50 (K-562 leukemia) was 1.78 µM [sample A, mean of 2 tests] and 16.8 nM [sample B, mean of 2 tests]. The GI50 (SN12C renal) was 4.57 µM [sample A, mean of 2 tests] and 379 nM [sample B, mean of 2 tests], the GI50 (CAKI-1 renal) was 904 nM [sample A, mean of 2 tests] and 42.6 nM [sample B, mean of 2 tests] and the TGI (SK-MEL-2 melanoma) was < 10 nM [sample A, mean of 2 tests] and 100 nM [sample B, mean of 2 tests]. For the same molecule, the GI50 (IGROV1 ovarian) was 278 nM [sample A, mean of 2 tests] and 25.5 nM [sample B, mean of 2 tests] and the GI50 (ACHN renal) was 3.79 µM [sample A, mean of 2 tests] and 240 nM [sample B, mean of 2 tests].

In the case of `CC(C)Nc1cc(-c2c[nH]c(C(=O)N[C@H](CO)c3cccc(Cl)c3)c2)c(Cl)cn1`, the TGI (SK-MEL-28 melanoma) is reported as 9.01 µM [sample A, 1 test] and 612 nM [sample B, 1 test].

With `CC(C)c1cnn2c(NCc3ccccc3)cc(NC[C@H]3CCNC[C@@H]3O)nc12` the TGI (SR leukemia) was 657 nM [sample A, mean of 2 tests] and 17.9 µM [sample B, mean of 2 tests].

For `C=C(CC(NC(=O)c1ccc(C(CC)Cc2cnc3nc(N)nc(N)c3n2)cc1)C(=O)O)C(=O)O` (centres undefined), the TGI (HCC-2998 colon) was 617 nM and > 100 µM and the GI50 (SNB-19 CNS) was 675 nM and 28.8 nM.

`COc1ccc(S(=O)(=O)N2CCN(C(=O)c3ccc(-c4ccccc4)cc3)CC2C(=O)NO)cc1` (centres undefined) was tested, and the GI50 (OVCAR-5 ovarian) was 8.96 µM and > 100 µM, the GI50 (SK-MEL-28 melanoma) was 3.49 µM and > 100 µM and the GI50 (COLO 205 colon) was 2.93 µM and > 100 µM. The TGI (DU-145 prostate) was 9.57 µM and > 100 µM, the TGI (K-562 leukemia) was 4.21 µM and > 100 µM and the TGI (SN12C renal) was 7.13 µM and > 100 µM. For the same molecule, the TGI (HCT-116 colon) was 9.04 µM and > 100 µM, the GI50 (T-47D breast) was 8.06 µM and > 100 µM and the GI50 (HCT-15 colon) was 7.1 µM and > 100 µM. The GI50 (HCC-2998 colon) was 1.94 µM and > 100 µM, the TGI (HCC-2998 colon) was 5.71 µM and > 100 µM and the TGI (HOP-62 NSCLC) was 5.67 µM and > 100 µM. For the same molecule, the GI50 (HS 578T breast) was 759 nM and > 100 µM, the TGI (HS 578T breast) was 4.51 µM and > 100 µM and the TGI (PC-3 prostate) was 4.96 µM and 80.6 µM. The GI50 (SK-MEL-2 melanoma) was 3.51 µM and > 100 µM, the TGI (SK-MEL-2 melanoma) was 9.16 µM and > 100 µM and the GI50 (NCI-H23 lung) was 3.2 µM and > 100 µM. The GI50 (SW-620 colon) was 975 nM and > 100 µM, the TGI (SW-620 colon) was 3.55 µM and > 100 µM and the TGI (IGROV1 ovarian) was 4.47 µM and > 100 µM. For the same molecule, the GI50 (NCI/ADR-RES ovarian) was 2.71 µM and > 100 µM, the TGI (NCI/ADR-RES ovarian) was 9.62 µM and > 100 µM and the TGI (A498 renal) was 5.78 µM and > 100 µM. For the same molecule, the TGI (MDA-MB-435) was 3.92 µM and > 100 µM, the TGI (SK-MEL-5 melanoma) was 6.1 µM and > 100 µM and the TGI (MALME-3M melanoma) was 7.45 µM and > 100 µM. For the same molecule, the TGI (KM12 colon) was 8 µM and > 100 µM, the TGI (SF-268 CNS) was 3.39 µM and 69.7 µM and the TGI (MDA-MB-231 breast) was 4.2 µM and 78.1 µM. The GI50 (UACC-257 melanoma) was 6.81 µM and > 100 µM, the GI50 (SNB-19 CNS) was 9.25 µM and > 100 µM and the GI50 (LOX IMVI melanoma) was 166 nM and 1.71 µM. The TGI (LOX IMVI melanoma) was 353 nM and 4.11 µM, the GI50 (NCI-H522 lung) was 341 nM and 42.3 µM and the TGI (NCI-H522 lung) was 841 nM and > 100 µM.

Source: PubChem BioAssay (NCI)
